Assay results taken from PubChem BioAssay AID757 (NMMLSC, 2007).
Hit rate of the full screen: of about 190,000 compounds, about 520 (0.27%) were called active. The inconclusive results got no clear call from the source; some entries with a clear call stand among them for comparison.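 How the source made its calls: active means GTP binding activity at least 20 points away from the 100% control level, either lower or higher; inconclusive means compound flagged as likely green fluorescent, judged across all proteins; inactive means the rest.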

These compounds were tested against Ras-related C3 botulinum toxin substrate 1 (Homo sapiens) (UniProt P63000) (assay: wildtype Rac1 GTP binding modulators, primary screen, biochemical, GST-Rac1 beads, flow cytometry, multiplex (AID 757)). Conditions: fluorescent GTP binding, at 10 µM, actives lie on both sides, 0 = cold GTP competed, 100 = untreated.

Compound | GTP binding activity (% of control)
O=C(NCC(=O)N1CC(O)CC1C(=O)N1CCCC1C(=O)OCc1ccccc1)OCc1ccccc1 (configuration not stated) | inactive: 96%
CCOc1ccc(Cc2n[nH]c(=S)n2Cc2ccccc2)cc1 | inactive: 99%
CCOC(=O)C(CC)Sc1ccc2nnc(CCNS(=O)(=O)c3ccccc3)n2n1 (configuration not stated) | inconclusive: 102%
Cc1cc(C(=O)NC(=S)Nc2cccc(C(=O)O)c2C)ccc1[N+](=O)[O-] | inconclusive: 106%
COCCn1c(NC(=S)NC(=O)C2CC2)cc(=O)[nH]c1=O | inconclusive: 89%
COc1ccc(N(C(=O)c2cccc(OC)c2OC)C2C=CS(=O)(=O)C2)cc1 (configuration not stated) | inconclusive: 99%
CC1=C(C(=O)OC(C)C)C(c2ccncc2)n2ncnc2N1 (configuration not stated) | inconclusive: 89%
CC1(C)CC(=O)C2=C(C1)OC(N)=C(C#N)C21CCC2(CC1)OCCO2 | inconclusive: 93%
CCCNC(=S)NC1CC2CCC(C1)N2Cc1ccccc1 (configuration not stated) | inconclusive: 107%
COc1ccc(NC(=O)CC2S/C(=N\c3nccs3)N(C)C2=O)cc1 (configuration not stated) | inactive: 100%
CCOc1ccc(Oc2ccccc2NC(=O)CCNC(C)=O)cc1 | inactive: 101%
COc1ccc(-c2nnc3ccc(SCC(=O)Nc4cc(C)on4)nn23)cc1OC | inactive: 93%
O=C1CC(c2ccccc2)CC(O)=C1C=Nc1ccccc1O (configuration not stated) | inconclusive: 98%
O=C1C=C(NCCc2ccccc2)C2(CCCCC2)O1 | inconclusive: 101%
Cc1ccc(C)c(/C=C(\C(=O)O)c2ccc(S(=O)(=O)N3CCCCC3)s2)c1 | inactive: 95%
CC(C)(C)SCCNC(=O)CN(c1ccccc1)S(=O)(=O)c1ccc(F)cc1 | inactive: 103%
COc1ccc(-c2noc(CN3CCN(c4ccccc4F)CC3)n2)cc1OC | inconclusive: 95%
O=C(NCc1ccc(F)cc1)c1cccc(S(=O)(=O)N2CCCC2)c1 | inconclusive: 108%
CCOc1ccccc1C1C(C#N)=C(N)Nc2onc(-c3ccccc3)c21 (configuration not stated) | inconclusive: 104%
CCN(CC)CCNC(=O)CCCCn1c(=S)[nH]c2c([nH]c3ccc(OC)cc32)c1=O | inconclusive: 108%
COCCn1c(N)c(C(=O)Nc2sc3c(c2C(=O)OC)CCCC3)c2nc3ccccc3nc21 | active: 77%
COc1ccc(NC(=O)Cn2c(=O)n(CC(=O)NCc3ccco3)c(=O)c3ccccc32)cc1 | inconclusive: 106%
CCCC(C)C(=O)Nc1ccc(S(=O)(=O)Nc2nccs2)cc1 (configuration not stated) | inactive: 98%
CCCCOC(=O)C(C)Sc1n[nH]c(=O)[nH]c1=O (configuration not stated) | inactive: 101%

Compound | GTP binding activity (% of control)
COc1ccc(-c2csc(C3=C(O)CN(CCCN4CCCC4=O)C3=N)n2)cc1OC | inconclusive: 82%
CCCNC(=O)Cc1cc(=O)[nH]c(=O)[nH]1 | inconclusive: 105%
Cc1ccc(Oc2c(F)c(F)nc(N3CCCC3)c2F)cc1 | inconclusive: 92%
Cc1cc(NC(=O)C2CC(=O)N(c3ccccc3)C2)no1 (configuration not stated) | inactive: 104%
CCOC(=O)c1nc2sc3c(c2c(=O)n1C(C)C(=O)OCC)CCCC3 (configuration not stated) | inactive: 101%
Cc1ccc(C(=O)COC(=O)c2ccc3c(c2)C(=O)N(c2cccc4ncccc24)C3=O)cc1 | active: 71%
COc1cc2c(C)nc3c(c(C)nn3-c3ccccc3)c2cc1OC | active: 72%
COC(=O)c1cccc(NC(=O)c2nn(C)c(=O)c3ccccc23)c1 | active: 72%
Cc1ccc(-c2c(C(=O)O)c(C(=O)O)c3n2CCC3)cc1 | inconclusive: 114%
CCCCOC(=O)c1ccc(NC(=S)NC(=O)c2c(Cl)cnn2C)cc1 | inconclusive: 98%
CCN(CC)Cc1c(C(=O)OC(C)C)nnn1-c1nonc1N | inconclusive: 107%
CCN(C(=O)COc1ncnc2ccc(Br)cc12)C1CCS(=O)(=O)C1 (configuration not stated) | inconclusive: 106%
O=C1C2C3CCCC3=C3CCCC3C2C(=O)N1c1cccc(Cl)c1 (configuration not stated) | inconclusive: 105%
CC(C)c1ccc(C(=O)NC2=NCCS2)cc1 | inconclusive: 329%
COc1cc(/C=C/C(=O)O)cc(S(=O)(=O)NC2CC2)c1OC | inactive: 105%
O=C(Cn1ncc(Cl)c(Cl)c1=O)N1CCN(Cc2ccccc2)CC1 | inconclusive: 92%
CC(=O)n1nc(-c2ccccc2)nc1NCc1ccc(N(C)C)cc1 | inactive: 92%
CCOC(=O)C1=C(C)NC(SCC(=O)OC)=C(C#N)C1c1ccc(C(=O)OC)cc1 (configuration not stated) | inconclusive: 88%
CC1=C(OC(=O)c2ccccc2)C(C)(C)C(c2ccccc2)OC1=O (configuration not stated) | inconclusive: 98%
CCOc1ccccc1CN1CCN(Cc2csc(C(C)=O)c2)CC1CCO (configuration not stated) | inactive: 98%
COc1ccc(OC)c(S(=O)(=O)NC(N)=NCCc2ccccc2OC)c1 | inactive: 97%
COCCCn1c(Cc2csc(Nc3cccc(Cl)c3)n2)nnc1SCC(=O)OC1CCCCC1 | inconclusive: 93%
COc1ccc(OCc2ccc(C(=O)NN)cc2)cc1 | inactive: 112%
